Values marked as one replicate rest on one cluster of the flow cell; about a third of the high ones do not repeat.
Tested on: ATP
Experiment: switch fluorescence ratio, 500 uM ATP over buffer (Cy3 cluster intensity, sum of 5 cycles each) (fold (ratio)); higher = stronger signal-on switching upon ATP binding; sequences stand for … in TCGTCGGCAGCGTCAGATGTGTATAAGAGACAGTTTTTTTTTTTTTTTTTTTTTTTTT…TC
Conditions: aptamer strand: ATP DNA aptamer (quencher-CACCTGGGGGAGTATTGCGGAGGAAGG + anchor), 100 nM annealed; ATP concentration: 500 uM; one replicate
Summary of the method: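 Cy3-labelled switching-strand clusters on a modified Illumina MiSeq flow-cell were annealed to 100 nM quencher-labelled ATP aptamer and imaged first in selection buffer, then after 15 min with 500 uM ATP at 22 °C. NaOH stripping and re-annealing separated each of five buffer/ATP cycles, and clusters outside 100-1000 RFU were excluded. The fluorescence ratio sums target-cycle Cy3 intensity over buffer-cycle Cy3 intensity per cluster and averages it per switch-domain sequence.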
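Further: ATP exposure 15 min at 22 °C before imaging.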

In the case of TTCCTCCTAA, the switch fluorescence ratio is reported as 1.65.

AAGATTTCTT was tested, and the switch fluorescence ratio was 0.991.

GTGAAGAGTT was tested, and the switch fluorescence ratio was 0.952.

Work on GTAGCCTTTC yielded a switch fluorescence ratio of 1.49.

Sequence AATGACAACT has a switch fluorescence ratio of 1.

GGTCCGCCGG gave a switch fluorescence ratio of 1.11.

Sequence AACTTCGG has a switch fluorescence ratio of 1.06.

In the case of CGTTTAAAAT, the switch fluorescence ratio is reported as 1.03.

GTTATACCAT was tested, and the switch fluorescence ratio was 0.972.

TCATAGTAGC showed a switch fluorescence ratio of 0.954.

CTCAGGCGAG was tested, and the switch fluorescence ratio was 1.04.

TTCTAGTACA showed a switch fluorescence ratio of 0.994.

With CAACTTTCGA the switch fluorescence ratio was 1.04.

With TAGGTCATTA the switch fluorescence ratio was 1.

In the case of ATTATGAAGC, the switch fluorescence ratio is reported as 1.01.

CGAATGGGGC showed a switch fluorescence ratio of 0.994.

Work on TGGATGGCAG yielded a switch fluorescence ratio of 0.96.

GCCCCGATGT showed a switch fluorescence ratio of 1.06.

TGATCGTAGT showed a switch fluorescence ratio of 0.984.

GGAGGGATGC showed a switch fluorescence ratio of 1.25.

Work on TGCCAAGTGC yielded a switch fluorescence ratio of 1.03.

GCATCGACCT gave a switch fluorescence ratio of 1.28.

In the case of GAGCGTTAGT, the switch fluorescence ratio is reported as 1.01.

In the case of ACAATGGCAG, the switch fluorescence ratio is reported as 1.02.

Sequence TCGGGTATGA has a switch fluorescence ratio of 1.02.

Sequence TACATGAGTC has a switch fluorescence ratio of 1.01.

For GCTACTTGCA, the switch fluorescence ratio was 1.04.

Sequence CTTTGCAGCA has a switch fluorescence ratio of 1.22.

Sequence CGATCTGTCT has a switch fluorescence ratio of 0.974.

CCTTTGTGCT gave a switch fluorescence ratio of 1.02.

GAATTATGCT gave a switch fluorescence ratio of 0.963.

With ATGTTTGTTC the switch fluorescence ratio was 0.99.

In the case of AGCTCTCGGA, the switch fluorescence ratio is reported as 0.987.

TACTC was tested, and the switch fluorescence ratio was 1.

CATGATAATT gave a switch fluorescence ratio of 0.971.

For GATCTAGCGA, the switch fluorescence ratio was 0.981.

In the case of ATTTACGGA, the switch fluorescence ratio is reported as 1.08.

ATGTTTCGAT was tested, and the switch fluorescence ratio was 0.994.

In the case of CTTTGCGTGG, the switch fluorescence ratio is reported as 1.05.

With GTGTATTTGT the switch fluorescence ratio was 1.01.

GGCACATTGT gave a switch fluorescence ratio of 0.988.

In the case of CGATGAGACG, the switch fluorescence ratio is reported as 1.04.

CACGGGTTGT showed a switch fluorescence ratio of 1.04.

TAATGCTGGT gave a switch fluorescence ratio of 1.

TTAAGGTATC was tested, and the switch fluorescence ratio was 1.01.

Sequence CTAGACGCAT has a switch fluorescence ratio of 2.01.

With TAGGTTGTTA the switch fluorescence ratio was 0.959.

For GCTAGAAGAC, the switch fluorescence ratio was 1.05.

In the case of GCCATTAATA, the switch fluorescence ratio is reported as 0.975.

AGATACATGG gave a switch fluorescence ratio of 1.01.

In the case of TTGGCAGAGC, the switch fluorescence ratio is reported as 1.05.

For CTCGTTATTT, the switch fluorescence ratio was 1.02.

For ACATTGTGCA, the switch fluorescence ratio was 0.991.

With GCTTACGGAG the switch fluorescence ratio was 1.18.

AAAAGAGTTT gave a switch fluorescence ratio of 0.957.

GGTTAGTGGC gave a switch fluorescence ratio of 0.967.

Work on CAATTTAGCC yielded a switch fluorescence ratio of 0.973.

Sequence TTGGTCCCGT has a switch fluorescence ratio of 0.963.

Work on ATGACTTTTT yielded a switch fluorescence ratio of 0.993.

With CTAACGCTG the switch fluorescence ratio was 0.907.

For TACTCGTCAA, the switch fluorescence ratio was 1.89.

GGCCAAGACT was tested, and the switch fluorescence ratio was 1.06.

In the case of TGCCAAGTCG, the switch fluorescence ratio is reported as 0.906.

TTGCACCGTC showed a switch fluorescence ratio of 1.07.

Sequence TTTGCTGCGT has a switch fluorescence ratio of 1.02.

In the case of GTGCGCGTTT, the switch fluorescence ratio is reported as 1.01.

TAGTAGAGCG showed a switch fluorescence ratio of 1.03.

For GGTTGTGTGA, the switch fluorescence ratio was 0.973.

For ATAATTGCCA, the switch fluorescence ratio was 0.981.

For GTGATAGGTG, the switch fluorescence ratio was 1.11.

For TTTCGGGTCG, the switch fluorescence ratio was 0.991.

For AATGCCGCGC, the switch fluorescence ratio was 1.07.

Work on GAACTTGGAC yielded a switch fluorescence ratio of 1.02.

TATGTAGGG gave a switch fluorescence ratio of 1.02.

CAAACCGGTG showed a switch fluorescence ratio of 1.07.

TGGTCGGGCA showed a switch fluorescence ratio of 1.

For TGATGGCGCC, the switch fluorescence ratio was 1.04.

Sequence GGCGTTCTAG has a switch fluorescence ratio of 0.995.

In the case of TATTTATCGC, the switch fluorescence ratio is reported as 0.954.

TGGTTGTGTT was tested, and the switch fluorescence ratio was 0.985.

In the case of GTGTGATATT, the switch fluorescence ratio is reported as 0.982.

Work on ACGGCATAGG yielded a switch fluorescence ratio of 1.07.

For CCCGTGTCTC, the switch fluorescence ratio was 1.09.

GCCAACCCGC gave a switch fluorescence ratio of 1.43.

For TGGTTCCGAG, the switch fluorescence ratio was 1.07.

TTAGGGTAGT gave a switch fluorescence ratio of 1.02.

With TAGATCCCGT the switch fluorescence ratio was 1.05.

Work on TGATTCCCGG yielded a switch fluorescence ratio of 0.984.

AGGTATTTGC showed a switch fluorescence ratio of 1.01.

Work on AATTTAGAAA yielded a switch fluorescence ratio of 0.936.

GATCAGGCCA was tested, and the switch fluorescence ratio was 1.01.

For TGAATGGGAC, the switch fluorescence ratio was 1.02.

In the case of GGGCTTTC, the switch fluorescence ratio is reported as 1.01.

With TGGCAACGAT the switch fluorescence ratio was 0.976.

AGCGCATAGC was tested, and the switch fluorescence ratio was 1.02.

ATCCCGGTG showed a switch fluorescence ratio of 1.84.

Sequence GCGAAGTCAA has a switch fluorescence ratio of 1.08.

AAATTGACCT was tested, and the switch fluorescence ratio was 1.54.

Work on AGCCTGGGGG yielded a switch fluorescence ratio of 0.981.

Work on ATTTAGAAAA yielded a switch fluorescence ratio of 0.995.

In the case of CCCGATGGG, the switch fluorescence ratio is reported as 0.967.

GCCGACCACT was tested, and the switch fluorescence ratio was 1.03.

In the case of AGTTATAGT, the switch fluorescence ratio is reported as 0.986.

For CGGACAGAGA, the switch fluorescence ratio was 1.02.

Work on TCGTCGTCTC yielded a switch fluorescence ratio of 0.991.

For TTCCGCTTAG, the switch fluorescence ratio was 2.18.

GGGAAACAGC gave a switch fluorescence ratio of 1.01.

For CCCAGTAGG, the switch fluorescence ratio was 1.06.

With AGTGACGGT the switch fluorescence ratio was 1.02.

With AGAGTCTCAA the switch fluorescence ratio was 0.988.

Sequence ATTGCCGGGC has a switch fluorescence ratio of 1.

CGTGCAGTAA showed a switch fluorescence ratio of 1.4.

Sequence GATGAGCCTT has a switch fluorescence ratio of 1.05.

With CTTCACTTGT the switch fluorescence ratio was 1.01.

CCGGTGGACG gave a switch fluorescence ratio of 0.961.

GAGATACTAA gave a switch fluorescence ratio of 0.997.

AGACGTCGAA showed a switch fluorescence ratio of 1.01.

Sequence TGTTGATAG has a switch fluorescence ratio of 1.

With TTGCGCGCTG the switch fluorescence ratio was 0.989.

AAACAGTTCT showed a switch fluorescence ratio of 1.

For ACACGGCCCG, the switch fluorescence ratio was 1.05.

With GAGCGCATAG the switch fluorescence ratio was 1.7.

GCAGATATGT was tested, and the switch fluorescence ratio was 1.03.

Work on CCGTTGGCCC yielded a switch fluorescence ratio of 1.16.

TTTCCGTACT was tested, and the switch fluorescence ratio was 1.12.

Sequence GGGGTCTAAG has a switch fluorescence ratio of 0.957.

With GGGGCTGGAT the switch fluorescence ratio was 1.

Sequence GCTTATGCAT has a switch fluorescence ratio of 1.02.

ACCTGTCGGA was tested, and the switch fluorescence ratio was 1.04.

Sequence CGCGCTCCCT has a switch fluorescence ratio of 3.74.

CTTAGTCGCA showed a switch fluorescence ratio of 1.01.

TTCGGTGGTC gave a switch fluorescence ratio of 0.963.

Sequence GCTAATATAG has a switch fluorescence ratio of 1.01.

Work on ATCGGTTT yielded a switch fluorescence ratio of 0.993.

Sequence TACCACGACA has a switch fluorescence ratio of 1.21.

For GCGCCACGCA, the switch fluorescence ratio was 0.993.

Work on ACGTGTTTAC yielded a switch fluorescence ratio of 1.11.

Work on AGGACTTTGC yielded a switch fluorescence ratio of 1.

Work on CATCAATCA yielded a switch fluorescence ratio of 1.01.

Sequence ATACTATTTG has a switch fluorescence ratio of 1.

In the case of TGCGATCCA, the switch fluorescence ratio is reported as 1.16.

With ACAGGAAGCC the switch fluorescence ratio was 0.986.

Sequence ACGTGTCGGC has a switch fluorescence ratio of 1.02.

GTGTATCTAT gave a switch fluorescence ratio of 0.892.

Work on ACAAACGAAT yielded a switch fluorescence ratio of 1.25.

Work on TATGGACGAA yielded a switch fluorescence ratio of 1.

With GTTAATACTG the switch fluorescence ratio was 0.934.

With TTTTGCATGC the switch fluorescence ratio was 1.03.

ACAATCACTG gave a switch fluorescence ratio of 1.22.

TTATTCTGGG was tested, and the switch fluorescence ratio was 0.964.

With GTTATAATGA the switch fluorescence ratio was 1.04.

Sequence TGACTAGTTG has a switch fluorescence ratio of 0.997.

Work on TCAATCTGAG yielded a switch fluorescence ratio of 1.03.

GCACACATGC showed a switch fluorescence ratio of 1.01.

GGGGCAA showed a switch fluorescence ratio of 1.22.

In the case of CCTGTTCCTT, the switch fluorescence ratio is reported as 1.02.

Work on TGAGATTCCC yielded a switch fluorescence ratio of 1.

For AACATCCGAT, the switch fluorescence ratio was 1.06.

In the case of AGGTCTGATA, the switch fluorescence ratio is reported as 1.04.

TAAGAAGAGA showed a switch fluorescence ratio of 0.998.

Work on ATGTTACAGA yielded a switch fluorescence ratio of 1.03.

With GAGATGGCTA the switch fluorescence ratio was 0.965.

In the case of TCTATATTTC, the switch fluorescence ratio is reported as 0.965.

AATAGGTCGG was tested, and the switch fluorescence ratio was 0.983.

For ATGGGTCGT, the switch fluorescence ratio was 0.983.

Sequence AATTGTAGCG has a switch fluorescence ratio of 0.965.

For GGTGGCGGTC, the switch fluorescence ratio was 0.985.

Work on AAGCAGGTAG yielded a switch fluorescence ratio of 1.02.

For CCTTTGCTTG, the switch fluorescence ratio was 1.05.

For GCGTGCATGG, the switch fluorescence ratio was 1.01.

CGTCCTTGAC showed a switch fluorescence ratio of 1.

With TCGGGGAGTA the switch fluorescence ratio was 1.04.

CGGCGCGGCT showed a switch fluorescence ratio of 0.998.

Sequence TGCAAGTAGC has a switch fluorescence ratio of 1.12.

CACTTAAATC showed a switch fluorescence ratio of 1.28.

In the case of TGAAACAGGG, the switch fluorescence ratio is reported as 1.02.

For CGTGGGAGTC, the switch fluorescence ratio was 0.971.

For GCTAACCTGG, the switch fluorescence ratio was 1.07.

Work on ACAACACCTT yielded a switch fluorescence ratio of 1.29.

In the case of CGGATCCGCC, the switch fluorescence ratio is reported as 1.07.

For AGACAATTGG, the switch fluorescence ratio was 0.991.

With TCCGGAACCG the switch fluorescence ratio was 1.05.

With TGCTAATCGT the switch fluorescence ratio was 1.

With GAGGGAGGG the switch fluorescence ratio was 0.934.

CGAGTTAAAC gave a switch fluorescence ratio of 1.11.

GTTCAGTGT gave a switch fluorescence ratio of 0.98.

CGTGGACATC showed a switch fluorescence ratio of 0.966.

Work on GGTGCCGGGC yielded a switch fluorescence ratio of 0.964.

With CTGGGCAAGG the switch fluorescence ratio was 1.18.

Sequence GCTCAGTTGT has a switch fluorescence ratio of 1.05.

GTTATGAGCG gave a switch fluorescence ratio of 1.

Work on AAGGCCGCAG yielded a switch fluorescence ratio of 1.15.

Work on CGTCCTACAC yielded a switch fluorescence ratio of 1.39.

ATATAAGTA gave a switch fluorescence ratio of 0.925.

CGATTCCAAT gave a switch fluorescence ratio of 1.04.

Sequence ATTCGACTGC has a switch fluorescence ratio of 1.03.

In the case of TCGGAAGGCA, the switch fluorescence ratio is reported as 1.07.

CGGGTACCTT was tested, and the switch fluorescence ratio was 0.998.

For TTAAGTGGTC, the switch fluorescence ratio was 1.12.

TATAGTTCGC gave a switch fluorescence ratio of 1.02.

Work on TCGGGACTCA yielded a switch fluorescence ratio of 0.963.
